The entries are a selection whose mix differs from that of the whole data set. The list includes weakly bound sequences.
Legend:
Assay in all cases: protein-binding microarray (PBM)
Conditions in all cases: PBM: ~300 nM protein, 6 mM HEPES pH 7.8, 80 mM KCl, 0.5 mM EDTA, 0.5 mM EGTA, 6% glycerol, 35 ng/ul poly-dIdC, 1% milk, 1 h, room temperature; Ap Aiptasia and Nv Nematostella (sea anemones) / Co Capsaspora / Aq Amphimedon (sponge) / Dm Drosophila / Hu human; RHD is the Rel homology domain; high values mean tight binding; most listed sequences are background and not binding sites; double strand, one strand shown
[1] = target: T1, GST-Ap-NF-kB RHD (UniProt A0A913YAJ5)
T1 sequence: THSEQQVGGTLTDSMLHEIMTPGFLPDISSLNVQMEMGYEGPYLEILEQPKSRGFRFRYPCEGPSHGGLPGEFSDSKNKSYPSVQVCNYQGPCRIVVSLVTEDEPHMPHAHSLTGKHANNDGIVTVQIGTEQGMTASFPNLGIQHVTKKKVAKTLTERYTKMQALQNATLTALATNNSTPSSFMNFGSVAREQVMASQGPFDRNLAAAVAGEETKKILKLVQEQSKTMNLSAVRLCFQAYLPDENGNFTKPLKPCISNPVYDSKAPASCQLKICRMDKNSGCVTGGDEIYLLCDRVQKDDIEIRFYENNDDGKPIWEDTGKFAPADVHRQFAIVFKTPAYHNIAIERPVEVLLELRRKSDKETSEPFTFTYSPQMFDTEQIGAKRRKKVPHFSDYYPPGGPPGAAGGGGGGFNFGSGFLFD

[2] = target: T2, GST-Nv-NF-kB (Cys allele) (UniProt E5G601)
T2 sequence: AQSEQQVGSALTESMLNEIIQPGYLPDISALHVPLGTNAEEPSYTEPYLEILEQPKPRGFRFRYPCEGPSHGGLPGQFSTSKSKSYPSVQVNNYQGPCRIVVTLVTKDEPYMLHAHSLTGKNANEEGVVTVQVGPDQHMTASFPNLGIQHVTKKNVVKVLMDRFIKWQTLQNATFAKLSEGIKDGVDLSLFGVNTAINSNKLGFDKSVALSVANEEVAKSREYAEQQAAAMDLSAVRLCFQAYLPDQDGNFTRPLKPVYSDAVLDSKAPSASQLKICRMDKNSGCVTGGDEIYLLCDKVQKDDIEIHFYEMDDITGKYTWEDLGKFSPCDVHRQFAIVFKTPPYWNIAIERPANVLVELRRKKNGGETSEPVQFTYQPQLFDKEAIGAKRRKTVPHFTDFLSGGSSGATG

[3] = target: T3, GST-Co-NF-kB (UniProt F1ARL5)
T3 sequence: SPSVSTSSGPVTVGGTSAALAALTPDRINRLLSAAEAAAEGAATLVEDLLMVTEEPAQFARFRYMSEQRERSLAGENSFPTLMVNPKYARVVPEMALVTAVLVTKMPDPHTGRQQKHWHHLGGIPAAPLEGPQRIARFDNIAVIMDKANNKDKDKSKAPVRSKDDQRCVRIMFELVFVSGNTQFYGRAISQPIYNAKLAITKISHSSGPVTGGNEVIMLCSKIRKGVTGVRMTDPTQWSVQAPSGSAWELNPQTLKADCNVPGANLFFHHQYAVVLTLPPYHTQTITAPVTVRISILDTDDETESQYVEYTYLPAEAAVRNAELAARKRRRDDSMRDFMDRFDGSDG

[4] = target: T4, GST-Dm-Relish (UniProt Q94527)
T4 sequence: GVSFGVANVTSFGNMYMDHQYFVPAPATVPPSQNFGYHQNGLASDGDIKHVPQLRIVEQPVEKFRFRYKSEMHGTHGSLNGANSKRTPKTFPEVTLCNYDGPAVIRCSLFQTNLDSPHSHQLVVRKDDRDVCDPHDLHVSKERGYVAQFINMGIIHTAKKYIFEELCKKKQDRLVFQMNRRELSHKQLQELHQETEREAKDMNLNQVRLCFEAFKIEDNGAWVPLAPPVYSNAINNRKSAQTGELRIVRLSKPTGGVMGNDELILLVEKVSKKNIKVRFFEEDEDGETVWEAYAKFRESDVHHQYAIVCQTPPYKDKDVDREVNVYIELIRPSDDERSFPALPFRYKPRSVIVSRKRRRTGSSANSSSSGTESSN

[5] = target: T5, GST-Aq-NF-kB (UniProt A9Y5G7)
T5 sequence: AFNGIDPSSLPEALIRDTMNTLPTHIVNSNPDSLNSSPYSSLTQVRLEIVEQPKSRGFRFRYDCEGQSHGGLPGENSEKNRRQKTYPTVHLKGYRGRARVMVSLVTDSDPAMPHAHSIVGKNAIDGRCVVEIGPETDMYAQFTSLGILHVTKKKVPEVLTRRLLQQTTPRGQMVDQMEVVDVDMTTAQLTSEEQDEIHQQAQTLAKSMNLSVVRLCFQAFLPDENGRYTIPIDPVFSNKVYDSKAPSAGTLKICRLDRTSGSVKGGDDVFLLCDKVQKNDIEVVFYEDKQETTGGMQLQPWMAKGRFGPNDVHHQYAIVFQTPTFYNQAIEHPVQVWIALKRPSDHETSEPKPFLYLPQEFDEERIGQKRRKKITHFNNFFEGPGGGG

Row | Sequence | binding signal [1] [z-score] | binding signal [2] [z-score] | binding signal [3] [z-score] | binding signal [4] [z-score] | binding signal [5] [z-score]
1 | CCGATTAACATCACGATCAGCAGTGATGTTAATCGGGTCTTGATTCGCTTGACGCTGCTG | -0.123 | -0.401 | 0.543 | 0.0982 | -0.326
2 | CCGATTAACATCATTGCGGCTCATGATGTTAATCGGGTCTTGATTCGCTTGACGCTGCTG | -0.688 | 0.212 | -0.739 | -0.711 | -0.316
3 | CCGATTAACATCACTAAAATTATTGATGTTAATCGGGTCTTGATTCGCTTGACGCTGCTG | -0.674 | -0.31 | -0.581 | 0.182 | 0.015
4 | CCGATTAACATCATGTAACGGAGTGATGTTAATCGGGTCTTGATTCGCTTGACGCTGCTG | 0.288 | -0.519 | 0.0955 | -0.115 | -0.183
5 | CCGATTAACATCAATTTCTTATATGATGTTAATCGGGTCTTGATTCGCTTGACGCTGCTG | -1.21 | 0.425 | 0.869 | -0.262 | -0.111
6 | CCGATTAACATCACAAGATTTCCTGATGTTAATCGGGTCTTGATTCGCTTGACGCTGCTG | 0.104 | -0.0553 | 0.624 | 0.745 | 0.442
7 | CCGATTAACATCAGCTAACTGCTTGATGTTAATCGGGTCTTGATTCGCTTGACGCTGCTG | -0.645 | -0.708 | -1.16 | -0.656 | -0.366
8 | CCGATTAACATCAACCTCTTGTGTGATGTTAATCGGGTCTTGATTCGCTTGACGCTGCTG | -0.226 | -0.141 | 0.355 | 0.187 | -0.271
9 | CCGATTAACATCAATGCCCGAGTTGATGTTAATCGGGTCTTGATTCGCTTGACGCTGCTG | -0.507 | -0.00767 | 0.0825 | -0.449 | -0.0293
10 | CCGATTAACATCACTGCATGAAGTGATGTTAATCGGGTCTTGATTCGCTTGACGCTGCTG | -0.964 | 0.291 | -1.65 | -0.155 | -0.508
11 | CCGATTAACATCAAGCATTATAATGATGTTAATCGGGTCTTGATTCGCTTGACGCTGCTG | -0.455 | -0.865 | -0.911 | -0.613 | -0.387
12 | CCGATTAACATCAATTGGTCGAGTGATGTTAATCGGGTCTTGATTCGCTTGACGCTGCTG | -0.0232 | -0.956 | -0.0329 | -0.189 | -0.195
13 | CCGATTAACATCAATGTGCCCGTTGATGTTAATCGGGTCTTGATTCGCTTGACGCTGCTG | -0.436 | -0.709 | -0.412 | -0.393 | -0.125
14 | CCGATTAACATCATAAGAGAGCATGATGTTAATCGGGTCTTGATTCGCTTGACGCTGCTG | -0.248 | 0.0693 | -0.202 | -0.623 | -0.397
15 | CCGATTAACATCATTAATGTAGATGATGTTAATCGGGTCTTGATTCGCTTGACGCTGCTG | -0.523 | 0.0944 | -0.634 | -0.154 | -0.315
16 | CCGATTAACATCAAGTGCAGGGCTGATGTTAATCGGGTCTTGATTCGCTTGACGCTGCTG | -0.171 | -0.407 | 0.0991 | -0.0292 | -0.153
17 | CCGATTAACATCACAATGTGTGATGATGTTAATCGGGTCTTGATTCGCTTGACGCTGCTG | -0.891 | -0.287 | -0.801 | 0.249 | -0.241
18 | CCGATTAACATCAGGTCACACTCTGATGTTAATCGGGTCTTGATTCGCTTGACGCTGCTG | -0.45 | -0.368 | -0.66 | -0.601 | -0.773
19 | CCGATTAACATCAGGTCCTCTGGTGATGTTAATCGGGTCTTGATTCGCTTGACGCTGCTG | -0.0267 | -0.442 | 0.117 | -0.355 | 0.0979
20 | CCGATTAACATCATATAGGTCCGTGATGTTAATCGGGTCTTGATTCGCTTGACGCTGCTG | -0.253 | 0.257 | 0.0846 | -0.644 | -0.0208
21 | CCGATTAACATCAGAAATTCCTATGATGTTAATCGGGTCTTGATTCGCTTGACGCTGCTG | 0.111 | -0.669 | 0.235 | 0.303 | 0.696
22 | CCGATTAACATCAAAGTAAGATCTGATGTTAATCGGGTCTTGATTCGCTTGACGCTGCTG | -0.601 | 0.18 | 0.0823 | -0.584 | -0.607
23 | CCGATTAACATCACGATGAATCCTGATGTTAATCGGGTCTTGATTCGCTTGACGCTGCTG | -0.657 | 0.363 | -1.02 | -0.376 | -0.426
24 | CCGATTAACATCAAAAGACGGACTGATGTTAATCGGGTCTTGATTCGCTTGACGCTGCTG | 0.432 | -0.536 | -0.0369 | -0.471 | -0.135
25 | CCGATTAACATCAGCTTTCGCTGTGATGTTAATCGGGTCTTGATTCGCTTGACGCTGCTG | -0.216 | -0.952 | -0.805 | -0.343 | -0.759
26 | CCGATTAACATCAGGAGTGCCCATGATGTTAATCGGGTCTTGATTCGCTTGACGCTGCTG | 0.388 | -0.127 | 0.284 | -0.263 | 0.0806
27 | CCGATTAACATCACCATCTGACCTGATGTTAATCGGGTCTTGATTCGCTTGACGCTGCTG | -0.036 | -0.254 | 0.118 | -0.431 | -0.104

From article PMC5700166
